± gives the uncertainty stated by the source. The sequences are guide strands of siRNAs; only the seed at positions 2 to 7 varies.
What was measured:
3LL = experiment: cell viability relative to siNT1 control; higher = less toxic; conditions: concentration: 10 nM; 96 h; Mus musculus;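 also: Luminescence-based viability of cells reverse transfected in 384-well plates with lipid-complexed siRNAs built on a non-toxic 19mer backbone whose passenger strand carries 2′-O-methyl groups at positions 1 and 2, triplicates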
M565 = experiment: cell viability relative to lipid-only control; HeyA8 human ovarian and H460 human lung cancer; M565 mouse liver and 3LL mouse lung cancer; siNT1 is a non-toxic control siRNA; higher = less toxic; conditions: concentration: 10 nM; 96 h; Mus musculus
Protocol: (§1)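 Arrayed screen of 4096 siRNA duplexes, each carrying one of all possible 6mer seeds at guide-strand positions 2-7 in a fixed neutral 19mer scaffold (constant flanks: U at position 1, then ACAUGUAAACCA, plus a 3' AA overhang). The passenger strand is 2'-O-methylated at positions 1-2 so only the guide strand loads into RISC. Duplexes were reverse-transfected at 10 nM with RNAiMAX in triplicate in 384-well plates; viability was read by CellTiter-Glo ATP content 96 h after transfection. Values are % viability normalised to lipid-only wells (HeyA8, H460, M565) or to siNT1 (3LL).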

HeyA8 = experiment: as above; conditions: concentration: 10 nM; 96 h; Homo sapiens
Protocol: as §1

H460 = experiment: as above; conditions: concentration: 10 nM; 96 h; Homo sapiens
Protocol: as §1
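For cell viability relative to lipid-only control in this document: reverse lipid transfection in 384-well plates, in triplicate, of duplexes on a non-toxic 19mer backbone with passenger strand 2′-O-methylated at positions 1 and 2, luminescence viability read-out.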

Sequence | cell viability (3LL) [%] | cell viability (M565) [%] | cell viability (HeyA8) [%] | cell viability (H460) [%]
UCGAGUCACAUGUAAACCAAA | 78.5 ± 20 | 60.2 ± 5.9 | 53.4 ± 5.2 | 61.2 ± 8.4
UCUUGUAACAUGUAAACCAAA | 98.8 ± 16 | 74.3 ± 9.2 | 88.6 ± 8.1 | 81.7 ± 20
UGUGGGUACAUGUAAACCAAA | 9.28 ± 2.4 | 11 ± 1.8 | 3.88 ± 0.41 | 10.5 ± 2.7
UUGAGUAACAUGUAAACCAAA | 54.9 ± 7.7 | 62.8 ± 9.6 | 98.3 ± 5.8 | 70.4 ± 8.3
UACUACGACAUGUAAACCAAA | 92.3 ± 11 | 68.6 ± 12 | 91.1 ± 8.6 | 66.2 ± 16
UCCGGUUACAUGUAAACCAAA | 101 ± 27 | 68.4 ± 17 | 45.8 ± 3.9 | 41.8 ± 5.2
UCGGAGUACAUGUAAACCAAA | 75.8 ± 18 | 36.2 ± 4.3 | 43.2 ± 3.8 | 44.6 ± 8
UAGUCGAACAUGUAAACCAAA | 79.2 ± 9.1 | 32.2 ± 3.6 | 74 ± 5.3 | 87 ± 17
UUUUGUUACAUGUAAACCAAA | 78.6 ± 6.4 | 109 ± 14 | 87.6 ± 5.8 | 66.6 ± 1.6
UUCGGAAACAUGUAAACCAAA | 105 ± 14 | 77.4 ± 7.4 | 77.3 ± 3.7 | 92.6 ± 13
UAUGAGCACAUGUAAACCAAA | 21.6 ± 1 | 21.7 ± 4.1 | 75.5 ± 5.7 | 38.7 ± 9.3
UGCUUAUACAUGUAAACCAAA | 92.6 ± 12 | 72.4 ± 7.8 | 74.7 ± 4.4 | 84.6 ± 14
UAAAUGAACAUGUAAACCAAA | 111 ± 17 | 110 ± 13 | 99.4 ± 2.7 | 62.6 ± 5.2
UGUACAGACAUGUAAACCAAA | 88.5 ± 5.9 | 52.5 ± 12 | 78.6 ± 4.7 | 82.7 ± 12
UGCAUGAACAUGUAAACCAAA | 85.8 ± 12 | 62.6 ± 5.4 | 79.7 ± 11 | 64.5 ± 9.8
UCUCCAGACAUGUAAACCAAA | 92.7 ± 15 | 95.1 ± 10 | 85.2 ± 5.8 | 68.3 ± 7.1
UCACUAGACAUGUAAACCAAA | 92.1 ± 17 | 69.5 ± 7.6 | 77.5 ± 5.9 | 32.5 ± 10
UGCCUUUACAUGUAAACCAAA | 40.2 ± 12 | 9.63 ± 1.8 | 16.4 ± 2.2 | 47.1 ± 3.9
UUUACUGACAUGUAAACCAAA | 103 ± 6.7 | 78.8 ± 14 | 103 ± 5.8 | 92.1 ± 12
UGGAUUCACAUGUAAACCAAA | 93.4 ± 9.9 | 23.3 ± 1.9 | 66.2 ± 3.6 | 55.5 ± 5.1
UCCCUAGACAUGUAAACCAAA | 105 ± 32 | 97.6 ± 9 | 76.8 ± 8.2 | 48.4 ± 7.4
UUGAUUCACAUGUAAACCAAA | 33.1 ± 2.6 | 68 ± 10 | 63.1 ± 2.9 | 51.8 ± 6.9

Sequence | cell viability (3LL) [%] | cell viability (M565) [%] | cell viability (HeyA8) [%] | cell viability (H460) [%]
UACGGCCACAUGUAAACCAAA | 8.04 ± 3.7 | 21 ± 5.1 | 52.7 ± 5.5 | 46.1 ± 2.2
UAUCACCACAUGUAAACCAAA | 38.3 ± 3.3 | 47.6 ± 5 | 59.5 ± 7.2 | 39.2 ± 1.8
UGGCCACACAUGUAAACCAAA | 64.4 ± 13 | 22.1 ± 4 | 15.1 ± 1.4 | 37.5 ± 6.8
UGAGUCCACAUGUAAACCAAA | 2.4 ± 0.22 | 4.2 ± 0.58 | 32.1 ± 6.6 | 15.5 ± 4.6
UAGGCGGACAUGUAAACCAAA | 44 ± 2.2 | 14.2 ± 4.6 | 36 ± 3.4 | 65.4 ± 9.4
UUGACUGACAUGUAAACCAAA | 83.4 ± 5.4 | 100 ± 3.8 | 95.7 ± 6.1 | 86.5 ± 11
UUUAAAAACAUGUAAACCAAA | 97.5 ± 1.3 | 92.4 ± 7.2 | 94.7 ± 2.8 | 81.2 ± 8.3
UACGUGUACAUGUAAACCAAA | 75.6 ± 5.5 | 44.6 ± 3.2 | 63.5 ± 5.1 | 65.3 ± 5.1
UCGUUUAACAUGUAAACCAAA | 88.3 ± 14 | 80.1 ± 4.4 | 82.4 ± 12 | 67.6 ± 3.3
UAUUGGUACAUGUAAACCAAA | 87.5 ± 30 | 93.7 ± 22 | 43.5 ± 8 | 41.9 ± 2.9
UCUCCUGACAUGUAAACCAAA | 90.9 ± 10 | 70.8 ± 13 | 80.2 ± 5.6 | 54.9 ± 3.3
UUGAUAAACAUGUAAACCAAA | 97.5 ± 8.4 | 109 ± 14 | 91.6 ± 4.9 | 66.5 ± 8.8
UAACAGCACAUGUAAACCAAA | 56.1 ± 2.4 | 46.4 ± 4.2 | 28.2 ± 1.6 | 37.8 ± 9.9
UUUGCGGACAUGUAAACCAAA | 99.8 ± 8.4 | 62.2 ± 5.1 | 93 ± 4.8 | 89.1 ± 5.5
UUGCGACACAUGUAAACCAAA | 15.1 ± 11 | 61.9 ± 10 | 35.7 ± 2.6 | 20.6 ± 1
UGCCACGACAUGUAAACCAAA | 82.4 ± 15 | 56 ± 6.4 | 64.7 ± 5.5 | 45.2 ± 5.2
UCCCACCACAUGUAAACCAAA | 38.1 ± 7.2 | 8.55 ± 4.1 | 51.1 ± 3.4 | 28.4 ± 0.71
UCACAAUACAUGUAAACCAAA | 89.7 ± 14 | 73.3 ± 13 | 87.3 ± 5.1 | 34.9 ± 5.6
UGAAGUGACAUGUAAACCAAA | 88.1 ± 18 | 38.6 ± 5.3 | 65.2 ± 5.1 | 74.7 ± 13
UCGUUGAACAUGUAAACCAAA | 86.2 ± 11 | 45.5 ± 4.8 | 52 ± 6.2 | 93.6 ± 14
UGUGUCAACAUGUAAACCAAA | 48.6 ± 10 | 38.1 ± 2.9 | 73.5 ± 8.4 | 64.2 ± 6.8
UGGUGUUACAUGUAAACCAAA | 95 ± 14 | 27.8 ± 3.1 | 6.56 ± 0.69 | 29.8 ± 1.8

Reference: the supplement of paper PMC6206098
